Measurements as given in US20080293646A1, “MACROLIDES” (Pfizer Inc, priority 2007, published 2008).
In brackets after ≈: the same amount, converted by molar mass. Structures can show the parent of a compound that is named as a salt.

Assays:
[1] = molecular target: CYP3A (Homo sapiens, UniProt P08684); experiment: CYP3A time-dependent inhibition in human liver microsomes (midazolam probe)
Method: CYP3A is the major drug-metabolizing enzyme in human liver, catalyzing metabolism of an estimated 50% of all drugs. Inhibition of CYP3A can lead to drug-drug interactions. Most commercially available macrolides/ketolides are time-dependent inhibitors of CYP3A. Time-dependent inhibition (TDI) was assessed in vitro using human liver microsomes and a probe substrate for CYP3A activity (midazolam). Test compounds with lower Ki values and/or higher kinact and values have greater affinity for CYP3A and thereby greater potential for drug-drug interactions. […]
Secondary incubation: Secondary incubations containing midazolam (30 μMfinal) and NADPH-regenerating system (as described above for primary incubation) were carried out in triplicate in 100 mM KH2PO4, pH 7.4, at 37° C. open to air in a 0.7 mL total volume. […] The ratios of the peak area response of analyte (1′-hydroxymidazolam) to that of the internal standard were used for quantification.
The formation of 1′-hydroxymidazolam as a function of preincubation time and test compound concentration was determined. […] The natural log(Ln) of the percent remaining activity was plotted for each test compound concentration as a function of preincubation time, and the rate of inactivation (kobs) for each concentration was determined by calculating the slope of the linear portion of the percent remaining activity curve. […]

[2] = system: S. pyogenes ermB; experiment: microbe, parasite or virus in culture; type: cell-based, Streptococcus pyogenes; conditions: for MIC Range: S. pyogenes ermB, n=25 isolates; for MIC50 / MIC90: Streptococcus pyogenes

SMILES | fold increase in Ki in the CYP3A TDI assay compared to Comparative Examples A and B [1] | MIC Range [2] | MIC50 [2] [mg/L] | MIC90 [2] [mg/L] | fold improvement in MIC90 over telithromycin ([2]; ermB-containing S. pyogenes isolates) [fold]
CC[C@H]1OC(=O)[C@H](C)C(=O)[C@H](C)[C@@H](O[C@@H]2O[C@H](C)C[C@H](N(C)C)[C@H]2O)[C@](C)(OC)C[C@@H](C)C(=O)[C@H](C)[C@H]2N(C3CN(Cc4c(O)cnc5cccnc45)C3)C(=O)O[C@]12C [Example 1, 3-Descladinosyl-11,12-dideoxy-6-O-methyl-3-oxo-12,11-(oxycarbonyl-(1-((3-hydroxy-[1,5]-naphthyridin-4-yl)methyl)-azetidin-3-yl)-imino)-erythromycin A Fumarate] | approximately 10 fold | ≦0.06-4 μg/mL | 1 | 2 | 16
CC1(C)S[C@@H]2[C@H](NC(=O)[C@H](N)c3ccc(O)cc3)C(=O)N2[C@H]1C(=O)O [amoxicillin] | – | – | 0.0078 (≈ 0.0213 µM) | 0.0078 (≈ 0.0213 µM) | –
CC[C@H]1OC(=O)[C@H](C)[C@@H](O[C@H]2C[C@@](C)(OC)[C@@H](O)[C@H](C)O2)[C@H](C)[C@@H](O[C@@H]2O[C@H](C)C[C@H](N(C)C)[C@H]2O)[C@](C)(O)C[C@@H](C)C(=O)[C@H](C)[C@@H](O)[C@]1(C)O [erythromycin] | – | – | > 64 | > 64 | –
CC[C@H]1OC(=O)[C@H](C)C(=O)[C@H](C)[C@@H](O[C@@H]2O[C@H](C)C[C@H](N(C)C)[C@H]2O)[C@](C)(OC)C[C@@H](C)C(=O)[C@H](C)[C@H]2N(CCCCn3cnc(-c4cccnc4)c3)C(=O)O[C@]12C [telithromycin] | – | ≦0.06-64 μg/mL | 8 (≈ 9.85 µM) | 32 (≈ 39.4 µM) | –
